# Assay results reported in PubChem BioAssay (Tox21).
# Values joined by “and” are separate entries in the source; they are usually repeats but may differ in a detail not shown here. Equal values may be shown once. Inconclusive means that the source gave no clear call. Such entries were picked first, then a sample of the others. For some assays here: A potency beside an inconclusive call is a rough fit, not a confirmed value. Active and inactive are the calls of the source. Unless noted, calls follow the shape of the dose curve; as a rule, active = well fitted curve in the direction sought with a large enough effect in the repeat runs; inconclusive = weak or mixed curves; inactive = no such curve, though single readings can be large; an effect the other way counts as inactive or inconclusive.
# What was measured:
# [1] = target: Estrogen receptor beta (Homo sapiens) (UniProt Q92731); test: qHTS assay to identify small molecule agonists of the estrogen receptor beta (ER-beta) signaling pathway (AID 1259377; active = well fitted activation curve with a large enough effect in the signal ratio in the repeat runs, not every such curve was filed as active; inconclusive = weak or mixed curves, or effect the other way; the % refers to the signal ratio; as to activation: % is scaled to controls: 0 for no effect and ±100 for the full control effect); settings: ER-beta-UAS-bla HEK293T, beta-lactamase FRET ratio, 16 h; activation: at 92.4 µM (top of the series) unless noted
# Summary of the method: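 HEK293T ER-beta-UAS-bla; 2% charcoal-stripped FBS; cells pre-incubated 6 hr, compound 16 hr, 37C/5% CO2; LiveBLAzer B/G FRET substrate 2 h RT; fluorescence intensity read.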
# [2] = target: Estrogen receptor beta (Homo sapiens) (UniProt Q92731); test: qHTS assay to identify small molecule antagonists of the estrogen receptor beta (ER-beta) signaling pathway (AID 1259378; active = well fitted inhibition curve with a large enough effect in the signal ratio in the repeat runs, not every such curve was filed as active; inconclusive = weak or mixed curves, or effect the other way; inactive = no such curve, though single readings can be large or run the other way; the % refers to the signal ratio; as to activity, negative = inhibition: % is scaled to controls: 0 for no effect and ±100 for the full control effect); settings: ER-beta-UAS-bla HEK293T, beta-lactamase FRET ratio, 16 h; activity, negative = inhibition: at 92.4 µM (top of the series) unless noted
# Summary of the method: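 ER-beta-UAS-bla HEK293T (GripTite) cells in 2% charcoal-stripped FBS medium were preincubated 6 hr at 37C, dosed with compound, then stimulated with 1 nM E2 (final) for 16 hr; beta-lactamase reporter read by B/G FRET fluorescence after 2 hr substrate loading.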
# [3] = target: Progesterone receptor (Homo sapiens) (UniProt P06401); test: qHTS assay to identify small molecule antagonists of the progesterone receptor (PR) signaling pathway (AID 1346795; active = well fitted inhibition curve with a large enough effect in the signal ratio in the repeat runs, not every such curve was filed as active; inconclusive = weak or mixed curves; the % refers to the signal ratio; as to activity change, negative = inhibition: % is scaled to controls: 0 for no effect and ±100 for the full control effect); settings: PR-UAS-bla HEK293T, beta-lactamase FRET ratio, 16 h; activity change, negative = inhibition: at 92.4 µM (top of the series) unless noted
# Summary of the method: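 Read-out is fluorescence from the LiveBLAzer B/G FRET substrate, cleaved by a UAS-controlled beta-lactamase in PR-UAS-bla HEK293T cells after 16 hr exposure to compound plus 1 nM promegestone (final), followed by 2 hr at room temperature.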
# [4] = qHTS assay to identify small molecule agonists of the progesterone receptor (PR) signaling pathway - cell viability counter screen (AID 1346799; calls by dose curve; also: nearly all actives have a fitted effect of over 45% in size)
# Summary of the method: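 Luminescence from CellTiter-Glo, added after the beta-lactamase FRET read in the same wells, gave cytotoxicity in PR-UAS-bla HEK293T cells treated with compounds for 16 hr at 37C.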
# [5] = qHTS assay to identify small molecule agonists of the estrogen receptor beta (ER-beta) signaling pathway - cell viability counter screen (AID 1259380); also: nearly all actives have a fitted effect of over 30% in size
# Summary of the method: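 Measured: luminescence from CellTiter-Glo after 30 min at room temperature, added to wells already read for the LiveBLAzer FRET reporter (2 hr substrate); ER-beta-UAS-bla HEK293T cells had 16 hr compound treatment at 37C, 5% CO2.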
# [6] = target: Thyrotropin receptor (Homo sapiens) (UniProt P16473); test: qHTS assay to identify small molecule antagonists of the thyroid stimulating hormone receptor (TSHR) signaling pathway (AID 1259385; calls by dose curve; also: nearly all actives have a fitted effect of over 20% in size; as to activity change, negative = inhibition: % is scaled to controls: 0 for no effect and ±100 for the full control effect); settings: TSHR-HEK293 cAMP HTRF, TSH-stimulated antagonist mode; activity change, negative = inhibition: at 92.4 µM (top of the series) unless noted
# Summary of the method: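 TSHR-HEK293 cells were plated and held 18 h at 37C/5% CO2, then given compound plus Ro20-1724 and stimulated with TSH at 1.5 ng/mL final. After 30 min at room temperature, cAMP was detected with cAMP-d2/anti-cAMP-cryptate (1 h) by fluorescence.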
# [7] = target: Progesterone receptor (Homo sapiens) (UniProt P06401); test: qHTS assay to identify small molecule agonists of the progesterone receptor (PR) signaling pathway (AID 1346784; calls by dose curve; also: nearly all actives have a fitted effect of over 30% in size); settings: PR-UAS-bla HEK293T, beta-lactamase FRET ratio, 16 h; activation: at 92.4 µM (top of the series) unless noted
# Summary of the method: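 Beta-lactamase reporter read-out: after 16 hr compound treatment at 37C and a further 2 hr at room temperature with LiveBLAzer B/G FRET substrate, fluorescence was measured in PR-UAS-bla HEK 293T cells grown in 2% charcoal-stripped serum.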
# [8] = qHTS assay to identify small molecule agonists of the estrogen receptor alpha (ER-alpha) signaling pathway in the presence of an antagonist - cell viability counter screen (AID 1259386);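 also: cells exposed to compounds for 22 h at 37 °C before the viability read; nearly all actives have a fitted effect of over 30% in size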
# Summary of the method: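 The test measures whether compounds kill ER-alpha reporter cells (VM7Luc4E2) under antagonist co-treatment (ICI-182,780, 10.0nM). Fluorescence from CellTiter-Fluor is read after a 22hr exposure.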
# [9] = qHTS assay to identify small molecule antagonists of the progesterone receptor (PR) signaling pathway - cell viability counter screen (AID 1346798); also: nearly all actives have a fitted effect of over 50% in size
# Summary of the method: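 HEK293T PR-UAS-bla, 2% charcoal-stripped FBS; 4 hr pre-plate; cpd + R5020, 16 h 37C; LiveBLAzer read first; then CellTiter-Glo 30 min RT, luminescence.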
# [10] = qHTS assay to identify small molecule antagonists of the TGF-beta/Smad signaling pathway - cell viability counter screen (AID 1346824); also: nearly all actives have a fitted effect of over 50% in size
# Summary of the method: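 SBE-bla HEK 293T cells were plated overnight at 37 C, then given compounds in DMSO plus TGF-beta1 (added as 0.25 ng/mL solution) for 5 hr. After the bla read, CellTiter-Glo was added to the same wells and luminescence read after 30 min at room temperature.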
# [11] = qHTS assay to identify small molecule agonists of the TGF-beta/Smad signaling pathway - cell viability counter screen (AID 1346829); also: nearly all actives have a fitted effect of over 45% in size
# Summary of the method: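 HEK 293T SBE-bla line, 5 hr compound exposure at 37 C, multiplexed CellTiter-Glo viability read by luminescence.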
# [12] = qHTS assay to identify small molecule antagonists of the estrogen receptor beta (ER-beta) signaling pathway - cell viability counter screen (AID 1259382); also: nearly all actives have a fitted effect of over 55% in size
# Summary of the method: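 Readout: luminescence, CellTiter-Glo, same wells as bla assay. System: ER-beta-UAS-bla GripTite HEK293T, 2% charcoal-stripped FBS. Exposure: compounds plus 1nM 17-beta-estradiol, 16 hr, 37C.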
# [13] = qHTS assay to identify small molecule agonists of the TGF-beta/Smad signaling pathway (AID 1346859; active = well fitted activation curve with a large enough effect in the signal ratio in the repeat runs, not every such curve was filed as active; inconclusive = weak or mixed curves; the % refers to the signal ratio); settings: SBE-bla HEK293T, TGF-beta/Smad beta-lactamase reporter, 5 h; activation: at 76.8 µM (top of the series)
# Summary of the method: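 SBE-bla HEK 293T, 4,000 cells/well, plated o/n; cpd in DMSO, 5 hr, 37 C/5% CO2; B/G FRET substrate 2 hr RT; ex 405, em 460/530 nm.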
# Potency is read from the fitted curve at half-maximal effect; tags tell the direction and shape of the fitted curve or compound fluorescence and quenching.
# Chain of UniProt Q92731 (Q92731 whole entry, looked up): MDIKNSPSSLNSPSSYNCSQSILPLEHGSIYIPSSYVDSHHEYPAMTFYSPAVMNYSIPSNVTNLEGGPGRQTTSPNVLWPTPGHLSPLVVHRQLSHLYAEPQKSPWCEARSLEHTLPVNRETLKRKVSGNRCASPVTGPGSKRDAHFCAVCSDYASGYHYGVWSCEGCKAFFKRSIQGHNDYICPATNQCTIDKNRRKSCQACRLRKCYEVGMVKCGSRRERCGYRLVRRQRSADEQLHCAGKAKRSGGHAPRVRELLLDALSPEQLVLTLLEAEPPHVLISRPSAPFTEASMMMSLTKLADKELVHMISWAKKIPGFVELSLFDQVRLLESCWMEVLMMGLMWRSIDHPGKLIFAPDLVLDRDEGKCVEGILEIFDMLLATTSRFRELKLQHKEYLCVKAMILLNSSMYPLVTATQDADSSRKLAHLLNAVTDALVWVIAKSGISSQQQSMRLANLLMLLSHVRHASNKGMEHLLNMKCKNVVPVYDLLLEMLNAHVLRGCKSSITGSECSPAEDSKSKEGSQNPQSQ
# Chain of UniProt P06401 (P06401 whole entry, looked up): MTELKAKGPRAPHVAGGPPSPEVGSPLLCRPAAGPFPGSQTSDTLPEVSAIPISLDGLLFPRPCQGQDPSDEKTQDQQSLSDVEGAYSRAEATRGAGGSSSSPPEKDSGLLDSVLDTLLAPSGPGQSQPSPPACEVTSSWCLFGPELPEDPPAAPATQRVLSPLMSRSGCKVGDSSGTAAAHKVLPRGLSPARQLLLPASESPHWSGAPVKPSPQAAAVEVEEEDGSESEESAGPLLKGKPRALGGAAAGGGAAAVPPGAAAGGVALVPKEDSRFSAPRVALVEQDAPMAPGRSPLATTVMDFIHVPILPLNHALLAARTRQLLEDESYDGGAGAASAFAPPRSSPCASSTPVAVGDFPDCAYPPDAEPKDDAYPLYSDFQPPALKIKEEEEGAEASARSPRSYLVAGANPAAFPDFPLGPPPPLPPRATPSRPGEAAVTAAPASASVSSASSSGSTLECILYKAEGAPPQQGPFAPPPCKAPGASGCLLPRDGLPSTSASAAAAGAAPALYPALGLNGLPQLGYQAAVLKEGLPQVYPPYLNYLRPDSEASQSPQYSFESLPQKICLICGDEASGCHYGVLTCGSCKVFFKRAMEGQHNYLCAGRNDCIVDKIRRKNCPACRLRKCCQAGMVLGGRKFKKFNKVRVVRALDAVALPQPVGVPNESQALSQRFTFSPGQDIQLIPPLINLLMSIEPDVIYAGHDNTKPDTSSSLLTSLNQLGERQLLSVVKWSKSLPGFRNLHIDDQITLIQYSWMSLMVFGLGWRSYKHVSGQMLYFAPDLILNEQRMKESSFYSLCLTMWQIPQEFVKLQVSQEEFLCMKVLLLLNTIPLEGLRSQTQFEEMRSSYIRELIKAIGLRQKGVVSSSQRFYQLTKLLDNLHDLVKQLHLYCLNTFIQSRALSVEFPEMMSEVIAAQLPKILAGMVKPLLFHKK
# Chain of UniProt P16473 (P16473 whole entry, looked up): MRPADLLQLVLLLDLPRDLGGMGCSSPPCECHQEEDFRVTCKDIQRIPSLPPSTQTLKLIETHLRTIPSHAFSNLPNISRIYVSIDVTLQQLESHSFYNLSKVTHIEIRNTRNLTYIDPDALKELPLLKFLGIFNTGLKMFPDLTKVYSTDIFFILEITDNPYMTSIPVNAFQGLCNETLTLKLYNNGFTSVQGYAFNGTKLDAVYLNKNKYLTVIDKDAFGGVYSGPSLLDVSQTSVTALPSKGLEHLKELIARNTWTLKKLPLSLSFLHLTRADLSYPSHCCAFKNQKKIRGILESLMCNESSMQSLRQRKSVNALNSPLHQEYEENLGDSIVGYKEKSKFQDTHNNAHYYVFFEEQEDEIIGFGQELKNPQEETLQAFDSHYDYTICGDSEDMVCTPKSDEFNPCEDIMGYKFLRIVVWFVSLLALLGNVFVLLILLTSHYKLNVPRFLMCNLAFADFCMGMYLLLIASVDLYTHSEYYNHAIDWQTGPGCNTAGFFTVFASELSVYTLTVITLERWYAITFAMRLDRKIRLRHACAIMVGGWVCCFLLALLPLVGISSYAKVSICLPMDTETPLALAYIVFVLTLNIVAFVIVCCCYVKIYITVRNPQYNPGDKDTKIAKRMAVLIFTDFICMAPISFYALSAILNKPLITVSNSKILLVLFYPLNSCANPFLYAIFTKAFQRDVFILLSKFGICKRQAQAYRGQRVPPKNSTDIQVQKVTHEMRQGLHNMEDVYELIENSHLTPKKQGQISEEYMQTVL
smiles,measurement,setting,value
NC1CCN(c2cccc(Cl)n2)CC1,activation,[1],inconclusive: 9.43% [at 42.5 µM]
same,Potency,[2],inactive
same,Potency,[3],inactive
same,Potency,[4],inactive
COc1cccc(OC)c1O,activation,[1],inconclusive: 11%
same,Potency,[5],inactive
CCC(=O)O[C@]1(C(=O)CCl)[C@@H](C)C[C@H]2[C@@H]3CCC4=CC(=O)C=C[C@]4(C)[C@@]3(F)[C@@H](O)C[C@@]21C,Potency,[1],inactive
same,Potency,[2],active: 29.8 µM
same,Potency,[5],"inconclusive: 33.5 µM [cytotoxic, partial curve]"
same,Potency,[6],"inconclusive: 11.9 µM [falling, partial curve]"
same,Potency,[7],active: 0.0009 µM
same,Potency,[3],inactive
Oc1ccc(C2(c3ccc(O)c(C4CCCCC4)c3)CCCCC2)cc1C1CCCCC1,Potency,[1],"inconclusive: 30.6 µM [cytotoxic, full curve]"
same,Potency,[2],"inconclusive: 68.6 µM [cytotoxic, single point]"
same,Potency,[5],active: 19.3 µM
same,"activity change, negative = inhibition",[6],inconclusive: 12.7%
same,Potency,[8],"inconclusive: 68.6 µM [cytotoxic, single point]"
same,Potency,[7],"inconclusive: 21.7 µM [cytotoxic, full curve]"
same,Potency,[3],"inconclusive: 48.6 µM [falling, partial curve]"
same,Potency,[9],active: 43.3 µM
same,Potency,[4],active: 27.3 µM
same,Potency,[10],active: 43.6 µM
same,Potency,[11],active: 49 µM
c1ccc(-c2ccccc2-c2ccccc2)cc1,Potency,[1],"inconclusive: 68.6 µM [fluorescent, single point]"
same,Potency,[2],"inconclusive: 54.5 µM [rising, partial curve]"
same,Potency,[12],"inconclusive: 68.6 µM [cytotoxic, single point]"
same,Potency,[6],"inconclusive: 68.6 µM [falling, single point]"
same,Potency,[7],"inconclusive: 68.6 µM [cytotoxic, partial curve, poor fit]"
same,Potency,[3],inconclusive: 38.6 µM [partial curve]
same,Potency,[9],"inconclusive: 68.6 µM [cytotoxic, single point]"
same,Potency,[4],"inconclusive: 77 µM [cytotoxic, single point]"
CC(C)CO,Potency,[1],inactive
same,"activity, negative = inhibition",[2],inconclusive: 1.29%
same,Potency,[9],inconclusive: 69.8 µM
CC(C)C[C@H](NC(=O)OCC1c2ccccc2-c2ccccc21)C(=O)O,Potency,[1],"inconclusive: 77 µM [rising, partial curve, poor fit]"
same,Potency,[2],inconclusive: 54.5 µM
same,Potency,[12],inconclusive: 61.1 µM [cytotoxic]
same,Potency,[3],"inconclusive: 68.6 µM [falling, single point]"
C[C@]12CCC(=O)C=C1CC[C@@H]1[C@@H]2CC[C@@]2(C)[C@H]1CC[C@]2(O)C(=O)CO,activation,[1],inconclusive: 6.28% [at 42.5 µM]
same,"activity, negative = inhibition",[2],inconclusive: 13.8% [at 42.5 µM]
same,Potency,[7],active: 8.41 µM
same,Potency,[3],inconclusive: 0.841 µM [full curve]
same,Potency,[4],"inconclusive: 1.88 µM [rising, full curve]"
CCCCCCCCCCCC(=O)Cl,Potency,[1],"inconclusive: 27.3 µM [rising, partial curve]"
same,Potency,[2],"inconclusive: 61.1 µM [inhibitor, partial curve]"
same,Potency,[12],"inconclusive: 34.4 µM [cytotoxic, partial curve]"
same,Potency,[13],inactive
Cc1ccnc(N)c1,Potency,[1],inactive
same,Potency,[5],inactive
CC(C)(C)Cl,Potency,[1],"inconclusive: 28.8 µM [activator, partial curve]"
same,Potency,[5],inactive
COc1cc(CCC(C)=O)ccc1O,Potency,[1],"inconclusive: 24.3 µM [rising, full curve, poor fit]"
same,Potency,[5],inactive
same,Potency,[6],inactive
same,Potency,[9],"inconclusive: 27.3 µM [rising, single point]"
same,Potency,[10],inactive
C[C@H](N)C(=O)N[C@@H](C)C(=O)NC1[C@H]2CN(c3nc4c(cc3F)c(=O)c(C(=O)O)cn4-c3ccc(F)cc3F)C[C@@H]12 (stereo not given in full),activation,[1],inconclusive: 14.1% [at 42.5 µM]
same,Potency,[2],"inconclusive: 21.1 µM [activator, partial curve]"
same,Potency,[3],"inconclusive: 15 µM [rising, partial curve]"
same,Potency,[4],"inconclusive: 18.8 µM [rising, partial curve, poor fit]"
Cc1cccc(Nc2ccccc2C(=O)O)c1C,Potency,[1],"inconclusive: 2.43 µM [rising, full curve] and inconclusive: 4.22 µM [rising, full curve]"
same,Potency,[2],"inconclusive: 27.3 µM [fluorescent, partial curve] and inconclusive: 10.6 µM [fluorescent, partial curve]"
same,Potency,[12],"inconclusive: 61.1 µM [cytotoxic, partial curve, poor fit]"
same,Potency,[3],"inconclusive: 24.3 µM [rising, partial curve, poor fit] and inconclusive: 23.7 µM [rising, partial curve, poor fit]"
same,Potency,[13],"inconclusive: 21.9 µM [rising, partial curve]"
